# From publication PMC4336329 (PLoS ONE, 2015)
# The campaign covered roughly 310,000 compounds. About 14,000 (4.5%) showed an effect of 50% or more. The effect is printed as a negative number. This is one part of the list.
# Biological target: human ether-à-go-go-related gene (hERG) potassium channel (human, UniProt Q12809)
# Assay: primary screen, population patch clamp on CHO cells stably expressing hERG
# 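Note: peak tail current of the secondary pulse compared with the same well before compound.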
# Chain of human ether-à-go-go-related gene (hERG) potassium channel (Q12809 whole entry, looked up): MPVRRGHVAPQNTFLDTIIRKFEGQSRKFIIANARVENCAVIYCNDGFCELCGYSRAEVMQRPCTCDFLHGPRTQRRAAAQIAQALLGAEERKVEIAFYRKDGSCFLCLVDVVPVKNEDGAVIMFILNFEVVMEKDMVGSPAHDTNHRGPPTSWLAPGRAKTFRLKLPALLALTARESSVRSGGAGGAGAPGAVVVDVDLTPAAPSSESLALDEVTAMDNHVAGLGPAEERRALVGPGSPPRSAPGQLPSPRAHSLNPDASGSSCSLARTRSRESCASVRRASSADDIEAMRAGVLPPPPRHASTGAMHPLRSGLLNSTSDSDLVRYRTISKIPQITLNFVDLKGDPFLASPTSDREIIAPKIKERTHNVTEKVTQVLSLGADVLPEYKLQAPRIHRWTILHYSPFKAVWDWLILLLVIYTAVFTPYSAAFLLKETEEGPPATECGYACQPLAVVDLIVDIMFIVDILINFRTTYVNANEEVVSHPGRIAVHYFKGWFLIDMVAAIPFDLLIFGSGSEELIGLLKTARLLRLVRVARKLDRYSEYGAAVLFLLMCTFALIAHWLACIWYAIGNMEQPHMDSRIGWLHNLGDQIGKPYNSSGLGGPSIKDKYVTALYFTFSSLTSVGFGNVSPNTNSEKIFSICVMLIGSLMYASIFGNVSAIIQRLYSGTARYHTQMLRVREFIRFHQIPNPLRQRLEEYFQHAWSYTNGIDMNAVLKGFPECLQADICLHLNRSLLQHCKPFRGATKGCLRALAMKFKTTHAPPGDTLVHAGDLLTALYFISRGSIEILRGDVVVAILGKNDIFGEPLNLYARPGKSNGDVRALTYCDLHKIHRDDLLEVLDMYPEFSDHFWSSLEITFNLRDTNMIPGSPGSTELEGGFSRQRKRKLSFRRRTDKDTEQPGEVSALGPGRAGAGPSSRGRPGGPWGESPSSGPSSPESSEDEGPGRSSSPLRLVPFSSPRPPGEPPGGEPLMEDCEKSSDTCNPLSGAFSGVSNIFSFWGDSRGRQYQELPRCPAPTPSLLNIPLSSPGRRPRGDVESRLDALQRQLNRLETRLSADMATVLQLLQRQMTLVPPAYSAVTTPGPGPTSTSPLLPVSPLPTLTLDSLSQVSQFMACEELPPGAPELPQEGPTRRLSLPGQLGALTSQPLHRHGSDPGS
row,Structure (SMILES),"hERG current change (%, negative = inhibition) at 10uM [%]"
1,O=c1c(Cl)c(N2CCN(S(=O)(=O)c3ccc(F)cc3)CC2)cnn1-c1cccc(Cl)c1,-29.4
2,Cc1c(C(=O)NCC2CCCO2)cccc1[N+](=O)[O-] (stereo not drawn),6.08
3,Cc1ccc(-c2nnc(SCC(=O)NNC(=O)COc3cccc(C)c3)n2C)cc1,-4.33
4,CC12CCC(=O)N1C(C(=O)NNC(=O)c1ccc(F)cc1)CS2 (stereo not drawn),19
5,N#CCSc1ncccc1-c1nc2ccccc2[nH]1,1.01
6,Cc1oc(-c2ccccc2Cl)[n+]([O-])c1C.Cl,8.48
7,Cn1cc2ccc([N+](=O)[O-])cc2n1,6
8,CCOC(=O)C1=C(COC(=O)[C@H](C)NS(=O)(=O)c2ccccc2F)NC(=O)NC1C (stereo partly drawn),13.3
9,CC1CC1C(=O)OCC(=O)c1c(N)n(C)c(=O)n(C)c1=O (stereo not drawn),4.1
10,CCOC(=O)c1ccc(S(=O)(=O)N2CCC(C(=O)OCC)CC2)cc1,-30.8
11,CCc1ccc2nc(N=C(N)N)nc(C)c2c1,-14.3
12,Cc1c(NP(=O)(C(C)(C)C)C(C)(C)C)c(=O)n(-c2ccccc2)n1C,26.4
13,Cc1cc2c(C)nc(N/N=C/c3ccccc3)nc2o1,-27.6
14,Cc1nnc(SCC(=O)NC(C)c2ccccc2)[nH]c1=O (stereo not drawn),12
15,COC(=O)c1ccc(N=Cc2c(C(F)(F)F)[nH]n(C)c2=O)cc1,-13.6
16,O=C(c1ccco1)N1CCN(C(=O)c2cn(-c3ccccc3)nc2-c2ccccc2)CC1,-86.5
17,COc1ccccc1N(CC(=O)NCc1ccc2c(c1)OCO2)C(=O)CCC(=O)Nc1nccs1,7.57
18,CCCCC(=O)Nc1cc(NC(=O)CCCC)cc(C(=O)O)c1,10.4
19,CCCN(CC(=O)Nc1ccc(F)c(F)c1F)C(=O)c1ccc(=O)n(Cc2ccccc2)n1,-15.1
20,O=C1[C@@H]2[C@@H]3C[C@@H]([C@H]4ON=C(c5ccc(OCc6ccccc6)cc5)[C@@H]34)[C@@H]2C(=O)N1c1ccc2c(c1)OCO2,12.4
21,O=C(O)c1ccc(-c2nc(-c3ccc(Cl)c(Cl)c3)cs2)cc1,-19.4
22,CCOC(=O)COn1c(=O)c(-c2ccc(Br)cc2)[n+]([O-])c2ccccc21,12.6

row,Structure (SMILES),"hERG current change (%, negative = inhibition) at 10uM [%]"
1,CCOc1cc(-c2nnc(NC(=O)C3=COCCO3)o2)cc(OCC)c1OCC,-23.4
2,COc1ccc(NC(=O)CN(C)S(=O)(=O)c2ccccc2)cc1,2.13
3,COc1ccc(C)cc1NC(=O)NC1CCCCCCC1,21
4,CCN(CCO)c1ccc(N=Nc2cc(C)[nH]n2)cc1,10.6
5,C=CCOc1ccc(-c2nc3c(c(=O)[nH]c(=O)n3CCCC)n2C)cc1OC,31.8
6,CC(C)(C#N)N([O-])C=C[N+](=O)C(C)(C)C#N,12
7,CCC1CCCCN1CCCNC(=O)C1CCC(CNS(=O)(=O)c2c(C)cc(C)cc2C)CC1 (stereo not drawn),-68.3
8,CN(Cc1cccc(Cl)c1)C(=O)C1CCC(=O)N(C2CC2)C1 (stereo not drawn),1.31
9,O=C(NC1CC1)C1CSC(c2cccnc2)=N1 (stereo not drawn),-12.5
10,CC(C)Oc1ccc(/C(O)=C2/C(=O)C(=O)N(CCN(C)C)C2c2ccco2)cc1 (stereo not drawn),14.9
11,Cc1nc2c(sc3nc4c(cc32)COC(C)(C)C4)c(=O)n1Cc1ccccc1,-10.6
12,Cc1ccc(S(=O)(=O)NCC(=O)OC(C)C(=O)Nc2ncc(Cl)cc2Cl)cc1 (stereo not drawn),-13.6
13,COc1ccc(Cl)cc1S(=O)(=O)N1CCC(C(=O)NCCc2ccccc2)CC1,-9.13
14,CCc1nc2sc3c(c2c(=O)o1)CCCC3,20.4
15,COc1ccc(C(=O)N/N=C(\C)c2cccc(NC(=O)c3ccc(F)cc3)c2)c(OC)c1,-40.1
16,COc1ccccc1CNC(=O)[C@@H](NC(=O)C1CCN(C(=O)[C@@H]2CCCN2C(=O)OC(C)(C)C)CC1)C(C)C,9.25
17,Cc1sc2ncn(CC(=O)NCCCOC(C)C)c(=O)c2c1S(=O)(=O)N1CCN(c2ncccn2)CC1,14.4
18,Cc1c(Cl)cccc1NC(=O)CNC(=O)c1ccccc1F,3.71
19,O=C(COC(=O)c1ncc(Cl)c(Cl)c1Cl)NCCc1ccccc1,5.32
20,CCn1c(SCC(=O)Nc2ccc(S(N)(=O)=O)cc2)nnc1-c1cccc(OC)c1,-8.52
21,C/C(=N/NC(=O)c1ccc(Br)o1)c1ccncc1,7.82
22,Cc1cccc(NC(=O)C2CCCN2C(=O)OCC(C)C)c1C (stereo not drawn),4.87

row,Structure (SMILES),"hERG current change (%, negative = inhibition) at 10uM [%]"
1,CCNC(=S)NNC(=O)CSc1nc2ccccc2[nH]1,17.2
2,O=C(NCCCN1CCOCC1)c1cc(Cl)ccc1Cl,11.5
3,O=C(NCCC1=CCCCC1)Nc1ccc2nsnc2c1,8.84
4,COc1ccc2c(-c3ccccc3)cc(=S)[nH]c2c1,12.1
5,CCCCCCn1c(SCCOC)nc2c1c(=O)[nH]c(=O)n2C,-59.8
6,CCN1CCN(CC(=O)c2ccc(C)cc2)CC1,8.76
7,O=C(Cc1ccccc1)Nn1c(O)c(/C=C2\C=Nc3ccccc32)sc1=S,13.4
8,COc1cc(NC(=O)COC(=O)[C@@H]2CCCN2S(=O)(=O)c2ccc(Cl)cc2)cc(OC)c1OC,-12.8
9,CCOC(=O)N1CCN(C(=O)COc2ccc(Cl)cc2C)CC1,-20.5
10,COc1ccc(C(=O)Nc2ccc(S(=O)(=O)NCc3ccco3)cc2)cc1OC,2.6
11,COc1ccc(/C(N)=N/OC(=O)Oc2ccccc2)cc1,18
12,CCOc1c2ccc(C(=O)NC3CCCc4ccccc43)cc2nn1CC (stereo not drawn),-1.49
13,CC(C)(C)OC(=O)N1CCC[C@H]1c1nnc(SCc2c(F)cccc2Cl)o1,2.16
14,Cc1nnc(NC(=O)C(C)Sc2nnc(CNC(=O)c3ccccc3F)n2C)s1 (stereo not drawn),1.93
15,Cc1cccc(C)c1NC(=O)CSc1nnc(C)c(=O)[nH]1,15.1
16,Cc1ccc(C(c2sc3ncnn3c2O)N2CCCCC2)cc1 (stereo not drawn),-4.53
17,O=C(NCCCN1CCc2ccccc2C1)Nc1ccc(Br)cc1,-71.7
18,Cc1nnc(N/N=C\c2ccc(-c3ccccc3[N+](=O)[O-])o2)n1N,-32.4
19,Cc1c(C(=O)N2CCCCC2)c(S(=O)(=O)N(C)Cc2ccco2)c(C)n1C,-3.94
20,CCOc1ccccc1NC(=O)C1CCN(C(=O)c2cccs2)CC1,18.3
21,O=c1cc[nH]c2ccc(OC(F)(F)F)cc12,18.4
22,CCC(C)NC(=O)CSc1ccc(S(=O)(=O)N2CCN(Cc3ccccc3)CC2)cn1 (stereo not drawn),-16.6

row,Structure (SMILES),"hERG current change (%, negative = inhibition) at 10uM [%]"
1,CCCCn1c(-c2cc(Cl)ccc2OC)n[nH]c1=S,22.6
2,Cc1ccc(NC(=O)C2C3CCCCC32)cc1[N+](=O)[O-] (stereo not drawn),14.4
3,Cc1ccc(OC(=O)NC2CCS(=O)(=O)C2)cc1C (stereo not drawn),2.78
4,CCOP(=O)(c1c(F)c(F)c(F)c(F)c1F)C(O)c1ccccc1 (stereo not drawn),6.67
5,Cn1c(=O)c2c(ncn2CC(=O)OCC(=O)Nc2cccc(Cl)c2)n(C)c1=O,-15.1
6,Cc1ccc(S(=O)(=O)c2nc(S(C)(=O)=O)sc2N2CCC3(CC2)OCCO3)cc1,-34.3
7,COc1cc(/C=N/N2CCN(Cc3ccccc3)CC2)cc(OC)c1OC(C)=O,-0.04
8,COc1ccc(CNC(=O)CCn2nc(C)c3c(C)n(-c4ccccc4)nc3c2=O)c(OC)c1,11.8
9,COc1ccc(C(=O)/C=C/c2ccc(OC)cc2OC)c(O)c1,1.75
10,Cc1cccn2cc(CSc3nnc(Nc4ccc(C(C)C)cc4)s3)nc12,8.83
11,COc1ccc(N2CCN(C(c3cc(OC)ccc3OC)c3nnnn3Cc3ccco3)CC2)cc1.Cl (stereo not drawn),-8.07
12,CCOC(=O)C1CCN(C(=O)CCc2ccc(S(=O)(=O)NCC(C)C)cc2)CC1,8.81
13,CCOC(=O)N1CCN(C(=O)c2ccc(N3C(=O)c4ccccc4C3=O)cc2)CC1,-11.3
14,Cc1ccc(CN2CCC(CNC(=O)Nc3ccccc3F)CC2)cc1,-69.7
15,O=C(CSc1nnc(-c2ccco2)n1-c1ccccc1)N1CCOCC1,2.92
16,O=[N+]([O-])c1ccc(NC(=S)NCCc2ccccc2)cc1,-2.15
17,COc1ccccc1C(CNC(=O)COc1cc(C)ccc1Cl)N1CCCC1 (stereo not drawn),-32.4
18,CC(=O)c1cccc(NC(=O)CSc2nc(=O)n(CCN3CCOCC3)c3c2CCC3)c1,-17.6
19,CCOC(=O)N1CCN(S(=O)(=O)c2ccc(C(=O)NNc3nc4c(C)cc(C)cc4s3)cc2)CC1,4.36
20,CN1C(=O)CC(C(=O)Nc2ccccc2F)SC1=Nc1ccc2c(c1)OCO2 (stereo not drawn),14.7
21,COC(=O)c1ccc(-c2ncc(-c3cccc4ccccc34)o2)cc1,14.4
